{"source": "ChEMBL document CHEMBL1201862", "about": "“PubChem BioAssay data set” (2004)", "note": "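Tested at 5 concentrations; 48 h exposure; 96-well plates; endpoints linearly interpolated, else capped at highest concentration. GI50 marks 50% less growth.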 The source made the active and inactive calls. Cut-off read from the data, not from the text of the source: active = GI50 up to about 1.1 µM and inactive = higher.", "data": [{"tested_on": "NCI-H322M", "assay": "DTP human tumour cell line panel, 48 h", "values": [{"compound": "O=C(CCc1cc(-c2ccc(F)cc2)n[nH]1)N(Cc1ccccc1)Cc1ccccc1", "GI50": "inactive: > 100 µM"}, {"compound": "CSCCC(NCc1c(O)ccc2c(-c3ccccc3)cc(=O)oc12)C(=O)O", "note": "(stereo not drawn)", "GI50": "inactive: > 100 µM"}, {"compound": "COc1nc2c(OC)cccc2c(OC)c1C=O", "GI50": "inactive: > 100 µM"}, {"compound": "CCCCCCCCCCCCCCCCCCNC(=S)N/C=C1/C(=O)C=C(C)OC1=O", "GI50": "inactive: 23 µM"}, {"compound": "COc1ccc(C(=O)O[C@@H]2CCN3CC[C@H](C)[C@H]23)cc1", "GI50": "inactive: > 100 µM"}, {"compound": "O=C1CCC(=O)N2CCCCN12", "GI50": "inactive: > 100 µM"}, {"compound": "CCOC(=O)c1nc2ccc(C(F)(F)F)cc2nc1Oc1ccc(C(=O)OC)cc1", "GI50": "inactive: > 100 µM"}, {"compound": "CC(=O)OC1COC(n2nc(/C=C/c3ccc(Cl)cc3)c(=O)n(/N=C/c3ccccc3)c2=S)C(OC(C)=O)C1OC(C)=O", "note": "(stereo not drawn)", "GI50": "inactive: > 100 µM"}, {"compound": "O=C(CC1(O)C(=O)Nc2ccccc21)c1ccco1", "note": "(stereo not drawn)", "GI50": "inactive: > 100 µM"}, {"compound": "COc1cc([C@@H]2c3cc4c(cc3[C@@H](NCc3ccccc3)C3COC(=O)[C@@H]32)OCO4)cc(OC)c1O", "note": "(stereo partly drawn)", "GI50": "inactive: 26.2 µM"}, {"compound": "O=C(NS(=O)(=O)Nc1ccc(Cl)cc1)OCc1ccc(Cl)cc1Cl", "GI50": "inactive: 21.2 µM"}, {"compound": "N#Cc1c(-c2ccc([N+](=O)[O-])cc2)c2c([nH]c1=O)-c1ccccc1CCC2", "GI50": "inactive: > 100 µM"}, {"compound": "C=CCN(c1cc(OCc2ccccc2)c(NC(C)=O)cc1[N+](=O)[O-])S(C)(=O)=O", "GI50": "inactive: 28.8 µM"}, {"compound": "COc1ccc([C@H]2C=C(c3cc(F)c(Cl)cc3Cl)N=c3s/c(=C\\c4ccc(-c5ccc(Cl)cc5Cl)o4)c(=O)n32)cc1", "GI50": "inactive: > 100 µM"}, {"compound": "O=C(O)c1ccccc1CC(Cc1ccc2c(c1)CCC2)C(=O)O", "note": "(stereo not drawn)", "GI50": "inactive: > 100 µM"}, {"compound": "CCOC(=O)c1cc(=O)c2cccc3c2n1CCS3", "GI50": "inactive: > 100 µM"}, {"compound": "O=C(NCCc1ccccn1)c1ccc2cc(C(=O)N3CC(CCl)c4ccc([N+](=O)[O-])cc43)[nH]c2c1", "note": "(stereo not drawn)", "GI50": "inactive: > 60.4 µM"}, {"compound": "CSCSSC", "GI50": "inactive: > 100 µM"}, {"compound": "COc1cc(C2S/C(=C/c3ccccc3)C(=O)N2c2cccc([N+](=O)[O-])c2)cc(OC)c1OC", "note": "(stereo not drawn)", "GI50": "inactive: > 100 µM"}, {"compound": "O=C1CN(c2ccccc2)Cc2nc(Cl)ccc2N1", "GI50": "inactive: > 100 µM"}, {"compound": "COc1ccc(/N=C(Nc2ccc(OC)cc2)/C(=N/c2ccc(OC)cc2)Nc2ccc(OC)cc2)cc1", "GI50": "inactive: > 100 µM"}, {"compound": "CCOC(=O)c1nc2ccc(C(F)(F)F)cc2nc1NCc1cc(OC)c(OC)c(OC)c1", "GI50": "inactive: 26.3 µM"}, {"compound": "Nc1nnc(CCC(=O)Nc2cc(Cl)ccc2Cl)n1N", "GI50": "inactive: > 100 µM"}, {"compound": "Nc1ccc(-c2nc3cc(F)ccc3s2)cc1CO", "GI50": "inactive: 17.7 µM"}, {"compound": "CC(C)(C)[Si](C)(C)OCC1CCC(n2cnc3c(N)ncnc32)O1", "note": "(stereo not drawn)", "GI50": "inactive: > 100 µM"}, {"compound": "COc1ccc(/C(=N/NC(N)=O)C2(O)C(=O)Nc3ccc([N+](=O)[O-])cc32)cc1", "note": "(stereo not drawn)", "GI50": "inactive: 76 µM"}, {"compound": "COc1ccc(N2C=Nn3c(nc4sc5c(c4c3=O)CCCC5)C2)cc1", "GI50": "inactive: > 100 µM"}, {"compound": "Cc1ccc(Nc2ccc(Nc3ccc(C)cc3)c3c2C(=O)c2c(O)ccc(O)c2C3=O)cc1", "GI50": "inactive: > 100 µM"}, {"compound": "Cc1ccc(S(=O)(=O)NC(=O)NC(CC(=O)O)C(=O)O)cc1", "note": "(stereo not drawn)", "GI50": "inactive: > 100 µM"}, {"compound": "CO/[N+]([O-])=C\\C(=O)N/C=C/C(=O)O", "GI50": "inactive: > 100 µM"}, {"compound": "CO/N=C/c1c(-c2ccc(Cl)cc2)c(/C=N/OC)n2c1sc1ccccc12", "GI50": "inactive: > 100 µM"}, {"compound": "O=[N+]([O-])c1ccc(C(Nc2ccccc2)P(c2ccccc2)c2ccccc2)cc1", "note": "(stereo not drawn)", "GI50": "inactive: > 100 µM"}, {"compound": "CCC1=C(c2ccc(OC)cc2)CC[C@@]2(CCNC2=O)[C@@H]1C", "GI50": "inactive: > 100 µM"}, {"compound": "CSC(=N/C=C/c1ccccc1)SC", "GI50": "inactive: > 100 µM"}, {"compound": "Nc1ccc(C(=O)NN2C(=O)C(Cl)C2c2ccc([N+](=O)[O-])cc2)cc1", "note": "(stereo not drawn)", "GI50": "inactive: 13.9 µM"}, {"compound": "CCC1(Cl)C(=O)NC(=O)N(C2CC(O)C(CO)O2)C1N=[N+]=[N-]", "note": "(stereo not drawn)", "GI50": "inactive: > 100 µM"}, {"compound": "Sc1nnc(Cc2ccc(Cl)cc2)[nH]1", "GI50": "inactive: 55.1 µM"}, {"compound": "CCOC(=O)/C=C(/C(=O)OCC)n1ccc(=O)n(Cc2cn(COCCOC(C)=O)nn2)c1=O", "GI50": "inactive: > 100 µM"}, {"compound": "COc1cccc(N2C(Cl)C(=O)C2c2c[nH]c3ccccc23)c1", "note": "(stereo not drawn)", "GI50": "inactive: > 100 µM"}, {"compound": "COc1cc(C2C(C(=O)O)=C(C)Oc3cc4c(cc32)OCO4)cc(OC)c1OC", "note": "(stereo not drawn)", "GI50": "inactive: 37 µM"}, {"compound": "OC(c1ccco1)C(F)(F)c1nc2ccccc2o1", "note": "(stereo not drawn)", "GI50": "inactive: > 100 µM"}, {"compound": "Cc1ccc([N+](=O)[O-])cc1S(=O)(=O)Nc1ccc(C2=NNC(c3ccccc3O)C2)cc1", "note": "(stereo not drawn)", "GI50": "inactive: 24.7 µM"}, {"compound": "O=S(=O)(O)C1=C2Sc3ccccc3N=C2c2ccccc2C1", "GI50": "inactive: 16.6 µM"}, {"compound": "C=C1C[C@]23CCC4C(C)(C)C(=O)CC[C@]4(C)C2C[C@H]1C(O)C3=O", "note": "(stereo partly drawn)", "GI50": "inactive: > 75 µM"}, {"compound": "CC1OC(OC2C(OC(=O)[C@]34CCC(C)(C)CC3C3=CCC5[C@@]6(C)C[C@H](O)[C@H](OC7OC(CO)C(O)C(O)C7N)[C@@](C)(C(=O)O)C6CC[C@@]5(C)C3(C)CC4)OCC(O)C2O)C(O)C(O)C1OC1OCC(O)C(O)C1O", "note": "(stereo partly drawn)", "GI50": "inactive: > 100 µM"}, {"compound": "CC(=O)Nc1cc(C(=O)Nc2cc(C(=O)N3CC(CCl)c4c3cc(N)c3ccccc43)nn2C)nn1C", "note": "(stereo not drawn)", "GI50": "active: 0.106 µM"}, {"compound": "N#CSc1ccc(S(N)(=O)=O)cc1", "GI50": "inactive: > 100 µM"}, {"compound": "COc1cccc(-c2cc(O)c3c(C)cc(C)nc3n2)c1", "GI50": "active: 0.729 µM"}]}]}
